Screen size: about 52,000 compounds; about 1,700 (3.3%) were called active. Rule as the data show it: active = survival mostly below about 52% (no sharp cut-off); inactive = mostly above about 56%. The list shows a part of the results.
Tested on: Wild type
Experiment: S. aureus survival, RN4220 and DeltatarO strains – OD600, teichoic acid synthesis inhibitors, primary screen (AID 463173)
Conditions: S. aureus RN4220 wild type/DeltatarO growth, OD600, 18 h, hits give low values, screened at 18.75 µg/mL (by protocol)

Row | SMILES | survival
1 | O=C(CCn1c(=O)c2cccn2c2cccnc21)NCc1ccc(Cl)cc1 | inactive: 90%
2 | COC(=O)c1ccc(NC(=O)C(=O)NCCc2sc3nc(-c4ccc(OC)cc4)nn3c2C)cc1 | inactive: 70%
3 | COc1ccccc1NC(=O)C1=C(C)Nc2c(C(=O)Nc3cccc(C)c3)cnn2C1c1ccccc1C (centres undefined) | inactive: 69%
4 | CCOC(=O)c1ccc(NC(=O)Cn2cc(C(=O)c3cccs3)c3ccccc32)cc1 | inactive: 75%
5 | Cc1cccc(OC(=O)c2nc(SCc3ccccc3F)ncc2Cl)c1 | inactive: 103%
6 | Cc1nc2ccn(Cc3cccs3)c(=O)c2cc1C(=O)NCc1ccc(Cl)cc1 | inactive: 22%
7 | COc1cc2nc(Nc3ccc(C)c(C)c3)nc(N)c2cc1OC | inactive: 81%
8 | Cc1ccc(Nc2nc3c(S(=O)(=O)c4ccccc4)nnn3c3ccc(Cl)cc23)c(C)c1 | inactive: 153%
9 | CCCN(CCC)CCCNC(=O)c1sc2nc3n(c(=O)c2c1C)CCC3 | inactive: 86%
10 | Oc1cccc(-c2nc(-c3cccs3)c(-c3cccs3)[nH]2)c1 | active: 3%
11 | Cc1ccccc1OCCSc1nnc(-c2ccc([N+](=O)[O-])cc2)o1 | inactive: 111%
12 | O=C(c1ccc2c(c1)N(Cc1cccc(Cl)c1)C(=O)c1ccccc1S2(=O)=O)N1CCN(Cc2ccccc2)CC1 | inactive: 83%
13 | CCc1cc2c(cc3c(=O)n(CC(=O)NC(C)C)nc(CC)n32)s1 | inactive: 71%
14 | COc1ccc(CNC(=O)CSCc2ccc(C)cc2)c(OC)c1 | inactive: 47%
15 | COc1ccccc1NC(=O)c1cc2c(n(-c3ccc(C)cc3)c1=O)CC(C)(C)CC2=O | inactive: 70%
16 | CCCn1cnc2sc3c(c2c1=O)CCCC3 | inactive: 107%
17 | CC1(C)CC(n2c(=O)c3c(n4cnnc24)-c2ccccc2CC32CCCCC2)CCO1 (centres undefined) | inactive: 102%
18 | CCC1CCCCN1CCCNC(=O)c1sc2nc(C)cc(C)c2c1-n1cccc1 (centres undefined) | inactive: 90%
19 | Cc1ccc(NS(=O)(=O)c2ccc(-c3cc(C)no3)cc2)c(C)c1 | inactive: 101%
20 | COc1ccc(CNC(=O)Cn2c(=O)n3nc(-c4cccc(F)c4)nc3c3ccccc32)cc1OC | inactive: 84%
21 | O=C(CSC1=NC(c2ccco2)CC(C(F)(F)F)N1)NCc1ccc(F)cc1 (centres undefined) | inactive: 102%
22 | COc1ccc(OC)c(NS(=O)(=O)c2ccc3c(c2)CCCN3C(=O)C2CCC2)c1 | inactive: 71%
23 | CCc1cc(=O)oc2c(C)c3c(cc12)CN(CCc1ccccc1)CO3 | inactive: 91%

Row | SMILES | survival
24 | O=C(Nc1ccc(F)cc1F)c1cc(CN2CCOCC2)on1 | inactive: 69%
25 | COc1ccc(CNC(=O)C2=Cc3cccc(OC)c3OC2)cc1OC | inactive: 66%
26 | CCN1CCCC1CNC(=O)Nc1c[nH]c2ccc(C)cc2c1=O (centres undefined) | inactive: 117%
27 | Cc1ccc(S(=O)(=O)Nc2ccc3c(c2)CCCN3C(=O)c2cccs2)cc1C | inactive: 65%
28 | COc1cc(Br)c(C2CC(=O)Nc3cc4c(cc32)OCCO4)cc1OC (centres undefined) | inactive: 90%
29 | CCc1ccc(CNC(=O)c2ccc(-n3c(C)cc4c3CCC(C)C4)cc2)cc1 (centres undefined) | inactive: 124%
30 | COc1cccc(C(c2sc3nc(-c4ccco4)nn3c2O)N2CCC3(CC2)OCCO3)c1 (centres undefined) | inactive: 60%
31 | CCc1nn(CC(=O)NCCN(CC(C)C)CC(C)C)c(=O)c2cc3sc(C)cc3n12 | inactive: 83%
32 | CCc1ccc(NC(=O)c2ccc(F)c(S(=O)(=O)N3CCc4ccccc4C3)c2)cc1 | inactive: 71%
33 | Cc1cccc(NC(=O)C(Cc2ccccc2)N2Cc3ccccc3C2=O)c1C (centres undefined) | inactive: 67%
34 | COc1ccc(-c2nc(CSc3nnc(C)n4c3cc3sccc34)c(C)o2)cc1 | inactive: 108%
35 | CCS(=O)(=O)N1CCc2cc(C(=O)Nc3cccc(NC(C)=O)c3)ccc21 | inactive: 78%
36 | COc1ccc(-c2ccc(=O)n(CC(=O)Nc3ccccc3C(F)(F)F)n2)cc1 | inactive: 55%
37 | Oc1ccccc1-c1nc2ccc(Cl)cn2c1Nc1ccc2c(c1)OCCO2 | inactive: 82%
38 | O=C(Nc1c(C(=O)N2CCN(c3ccccc3F)CC2)oc2ccccc12)c1ccc(Br)o1 | inactive: 80%
39 | Cc1ccc(C2c3[nH]c4ccccc4c3CCN2C(=O)CSc2ccccc2)cc1 (centres undefined) | inactive: 66%
40 | Cc1cc(C(=O)NCc2ccc(C(=O)O)o2)c(C)o1 | inactive: 96%
41 | CCOC(=O)CSc1nc2c(C)ccc(C)c2cc1C#N | inactive: 95%
42 | CC(Oc1ccc(Br)cc1)C(=O)N(Cc1nc(-c2ccccc2)no1)C(C)C (centres undefined) | inactive: 104%
43 | O=C(NCCCN1CCN(c2ccccc2)CC1)c1ccc2nc(CCc3ccccc3)oc2c1 | inactive: 45%
44 | CCc1nn2c(=O)cc(COC(=O)c3ccccc3NC(=O)c3ccc(C(C)(C)C)cc3)nc2s1 | inactive: 90%
45 | Cc1ccccc1OCC(=O)Nc1nnc(S(=O)(=O)N2CCCCCC2)s1 | inactive: 77%
46 | Cn1c(=O)oc2cc(S(=O)(=O)N3CCCC(C(=O)N4CCN(c5ccc(F)cc5)CC4)C3)ccc21 (centres undefined) | inactive: 86%

Row | SMILES | survival
47 | CSc1cccc(NC(=O)C2CCCN(S(=O)(=O)c3ccc4c(c3)CCCN4C(C)=O)C2)c1 (centres undefined) | inactive: 70%
48 | O=C(O)C1CSC(c2cccs2)N1 (centres undefined) | inactive: 106%
49 | CN(CCCN1C(=O)c2ccccc2C1=O)CCCN1C(=O)c2ccccc2C1=O | inactive: 97%
50 | Cc1ccc(-n2c(-c3cccc(C)c3)nc3c(cnn3-c3ccccc3)c2=O)cc1 | inactive: 26%
51 | O=S(=O)(c1ccc(F)cc1)N1CCCCC1 | inactive: 109%
52 | CCN(CC)C(=O)n1c(Cc2ccccc2)nc2ccccc21 | inactive: 111%
53 | CCOC(=O)c1ccccc1NC(=O)CSc1nc2cn(CC)nc2c(=O)n1Cc1ccc(Cl)cc1 | inactive: 67%
54 | Cc1ccc2c(c1)c1c(c(=O)n(-c3cccc(Cl)c3)c(=O)n1CC(=O)Nc1c(C)cccc1C)n2C | inactive: 66%
55 | O=C(CC1N=C2c3ccccc3N=C(SCc3ccc(Cl)cc3)N2C1=O)NCc1cccs1 (centres undefined) | inactive: 71%
56 | COc1ccc(N2CCN(C(=O)C3CCN(S(=O)(=O)c4cccs4)CC3)CC2)cc1 | inactive: 115%
57 | Cc1ccc(CN2CCSc3ccc(C(=O)N4CCN(c5ccccc5)CC4)cc32)cc1 | inactive: 48%
58 | O=c1c2cc3c(cc2n(Cc2ccc(Cl)cc2)c(=O)n1Cc1nc(-c2ccccc2)no1)OCO3 | inactive: 117%
59 | Cc1ccc(-n2c(Cc3ccccc3)nnc2SCc2nc(-c3cccs3)no2)cc1 | inactive: 65%
60 | Cc1ccc(/C=C/c2onc(C)c2S(=O)(=O)N2CCC(C(=O)N3CCC(N(C)C(C)C)CC3)CC2)cc1 | inactive: 74%
61 | Cc1ccc(C)c(CN2CCCN(Cc3ccc(F)cc3)S2(=O)=O)c1 | active: -6%
62 | COc1ccc(CNC(=O)Cc2c(C)c3cc4c(C)coc4c(C)c3oc2=O)cc1 | inactive: 95%
63 | O=C(Nc1cccc(Cl)c1)c1cnc2sc(N3CCCC3)nn2c1=O | inactive: 58%
64 | CN1C(=O)Cc2cc(S(=O)(=O)N3CCN(c4ccccc4F)CC3)ccc21 | inactive: 153%
65 | Cc1nc(-n2nc(C)c(Cc3ccccc3Cl)c2C)sc1C(=O)Nc1ccccc1F | inactive: 88%
66 | CC(C)c1ccc(C2=CC(c3ccc(C(C)C)cc3)n3nnnc3N2)cc1 (centres undefined) | inactive: 63%
67 | Cc1ccc2nc3c(cc(C(=O)NCC4CCCO4)c(=N)n3C(C)C)c(=O)n2c1 (centres undefined) | inactive: 82%
68 | CCOC(=O)Cn1c(=O)n(CC2CCCO2)c2nc(-c3ccc(C)cc3)nc(C(N)=O)c21 (centres undefined) | inactive: 63%
69 | CC(=O)c1ccc(S(=O)(=O)N2CCn3cccc3C2c2ccc(C)cc2)cc1 (centres undefined) | inactive: 72%

Row | SMILES | survival
70 | COc1ccc(Cl)cc1NC(=O)Cc1ccc(NC(=O)N2CCCCc3ccccc32)cc1 | inactive: 78%
71 | COc1ccccc1NC(=O)C(=O)NCC(c1ccc2c(c1)OCO2)N1CCOCC1 (centres undefined) | inactive: 63%
72 | COc1ccccc1/C=C/c1nc2ccccc2n1C(C)C | active: 2%
73 | CSc1ccc(CCNC(=O)c2cnc3c(C)cccn3c2=O)cc1 | inactive: 113%
74 | CCc1nnc(NC(=O)CSc2nccn2-c2ccc(OC)cc2)s1 | inactive: 135%
75 | Cc1ccc(OC(=O)c2cccc(S(=O)(=O)N3CCOCC3)c2)c(-n2nc3ccccc3n2)c1 | inactive: 103%
76 | CCn1c(C)c(C2N3CC4(C)CN2CC(C)(C3)C4=O)c2ccccc21 (centres undefined) | inactive: 87%
77 | COC(=O)CSc1nnc(C2CCCCC2)n1Cc1ccccc1 | inactive: 112%
78 | CC(C)(C)C(=O)Nc1ccc2oc(=O)ccc2c1 | inactive: 108%
79 | CC(=O)c1cccc(-n2c(=O)c3c4c(sc3n(CC(=O)c3ccccc3)c2=O)CN(C(C)=O)CC4)c1 | inactive: 88%
80 | Cc1nc(C)c(-c2ccc(SCC(=O)Nc3ccc(Br)cc3)nn2)s1 | inactive: 95%
81 | CC(=O)c1cc2c(cc1N/C(=N/S(=O)(=O)c1ccc(Cl)cc1)c1ccc(F)cc1)OCO2 | inactive: 80%
82 | CC1(C)Cc2ccccc2C(=NCC(=O)O)N1 | inactive: 101%
83 | Cc1ccc(C)c(CN2C(=O)c3ccccc3S(=O)(=O)c3ccc(C(=O)N(C)C4CCCCC4)cc32)c1 | inactive: 94%
84 | Cc1ccc(/C=C/c2onc(C)c2S(=O)(=O)N2CCC(C(=O)Nc3ccc(C)c(N(C)C)c3)CC2)cc1 | inactive: 143%
85 | Cc1ccc(C(=O)NC2CCSC2=O)cc1 (centres undefined) | inactive: 101%
86 | Cc1ccc(CNC(=O)CCCCCn2c(=O)[nH]c3ccccc3c2=O)cc1 | inactive: 146%
87 | Cc1nn(-c2ccccc2)c(OC(=O)C(C)C)c1Sc1ccc(Cl)cc1 | inactive: 39%
88 | CCc1ccccc1NC(=O)Nc1c[nH]c(=O)[nH]c1=O | inactive: 70%
89 | Cc1ccc(C)c(N2CCN(C(=O)c3ccc(NC(=O)c4nsc5ccccc45)cc3)CC2)c1 | inactive: 63%
